Results taken from the supplement of paper PMC3334620.
The full ranking holds about 33,000 sequences; the median of “E-score (-0.5 to 0.5)” is about -0.035, and the highest 2% start at about 0.35. The list shows a part of the results.

Each sequence was assayed against T1, Pdr3 (UniProt P33200) (assay: PBM E-score (8-mer binding enrichment) (E-score (-0.5 to 0.5)); higher = stronger / more preferred TF binding; most listed sequences are background and not binding sites). Settings: protein concentration: 200 nM; construct: GST-full length.
T1 sequence: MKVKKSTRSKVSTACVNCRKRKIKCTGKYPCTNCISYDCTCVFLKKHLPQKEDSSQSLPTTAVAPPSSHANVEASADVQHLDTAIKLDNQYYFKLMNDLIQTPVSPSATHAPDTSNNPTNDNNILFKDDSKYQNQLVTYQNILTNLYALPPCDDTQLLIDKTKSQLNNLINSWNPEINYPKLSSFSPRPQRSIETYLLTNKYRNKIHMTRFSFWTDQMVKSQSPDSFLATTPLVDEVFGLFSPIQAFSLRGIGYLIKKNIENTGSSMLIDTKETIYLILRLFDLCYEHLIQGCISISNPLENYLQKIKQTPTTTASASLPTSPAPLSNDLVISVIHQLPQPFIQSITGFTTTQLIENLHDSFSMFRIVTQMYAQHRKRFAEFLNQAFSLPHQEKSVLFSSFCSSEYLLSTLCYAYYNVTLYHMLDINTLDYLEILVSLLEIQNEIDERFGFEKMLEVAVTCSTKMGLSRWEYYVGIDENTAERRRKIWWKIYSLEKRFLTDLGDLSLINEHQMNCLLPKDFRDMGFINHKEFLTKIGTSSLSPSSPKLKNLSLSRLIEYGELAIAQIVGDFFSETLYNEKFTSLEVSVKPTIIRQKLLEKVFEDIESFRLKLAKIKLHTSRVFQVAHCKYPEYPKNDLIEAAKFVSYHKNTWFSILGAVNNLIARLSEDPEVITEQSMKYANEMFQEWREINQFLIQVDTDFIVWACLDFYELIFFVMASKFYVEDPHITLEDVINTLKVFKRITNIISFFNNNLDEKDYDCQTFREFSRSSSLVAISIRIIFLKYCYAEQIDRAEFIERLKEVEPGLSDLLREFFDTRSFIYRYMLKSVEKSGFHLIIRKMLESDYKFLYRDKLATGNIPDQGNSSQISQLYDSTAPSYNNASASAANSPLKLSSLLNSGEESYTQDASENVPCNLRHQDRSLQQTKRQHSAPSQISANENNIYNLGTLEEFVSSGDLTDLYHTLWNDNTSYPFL
Procedure, shortened: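 GST-tagged yeast TFs (full-length or DNA-binding domain) were made by PURExpress in vitro transcription/translation and applied at about 100-200 nM to universal all-10-mer Agilent arrays. The arrays were made double-stranded by primer extension, on fresh or once-stripped slides. Bound protein was detected with fluorescent anti-GST, and scans were normalised with masliner. Each ungapped eight-base word, pooled with its reverse complement, received an E-score (modified Wilcoxon-Mann-Whitney statistic) from the Universal PBM Analysis Suite.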

Sequence | PBM E-score
AACAACAC | 0.0662
AAGAGACT | -0.235
CCATTCGG | 0.0853
CTCGGTAA | 0.0593
AGATATCT | -0.188
AGATGGGC | 0.0798
TAGTAATA | 0.0153
ACTACCAT | -0.178
ACTAGGGA | -0.253
AAGCTTAT | -0.0146
CGAACCCG | 0.261
CAATAGGA | -0.247
ACAAACGC | 0.072
ACGCCGAA | 0.105
CGAAACCA | 0.0232
ACCGATAT | -0.0494
CATCAATA | -0.149
AACATTAC | -0.0261
ATACTACG | -0.00304
CAGCCATC | -0.0801
AGCGGGCG | 0.0229
CAGGTCGG | -0.0196
ACCACTTA | -0.0715
GCAGGAGA | -0.0103
CTATCCGC | 0.325

Sequence | PBM E-score
GACCCAGC | -0.219
CTTATTGA | -0.156
AATTAAAC | -0.00772
CAAAGTAC | -0.21
CACGAATA | -0.172
AGGCTTAG | -0.0695
GCAAGGAA | 0.133
ACCCGTAT | 0.0405
GCGTCTAC | -0.0787
AGATTCTA | -0.117
ATACATTG | -0.0766
ATGTAGGC | 0.014
AGGCAACA | -0.129
AGGCGGAA | 0.35
GGGCGGTA | 0.195
TCGCACAA | -0.0677
TCGCTGAA | -0.0568
ATAAGTGG | -0.119
AACGTGCG | 0.0349
CTACTTCA | -0.0398
CGCACCAC | 0.119
CGAATTAG | 0.0927
GCGGACTA | 0.274
CACCTTCG | 0.0557
GGGTATAC | -0.0104

Sequence | PBM E-score
ACCAGGAT | 0.0428
CCTCCGGC | 0.32
CTATATGA | -0.0848
TCCTGACA | -0.138
ACACCAAT | 0.0269
ATTATAGG | -0.00934
AAACCAAC | 0.00216
CAAGTGCA | -0.364
ATCGTATA | 0.0981
AATTACAC | 0.0166
GCAATTAC | 0.0239
TAATCAAA | 0.17
AAACCTAT | -0.169
CAATAAGG | -0.238
ACTGACCA | -0.242
ATGGCGGC | 0.14
CCTCTACG | -0.233
GCAGATCA | -0.197
AAGGCAGG | -0.123
AACGTGAG | -0.166
CAGCCAAC | 0.0126
CTATATAA | -0.168
AATATTCT | 0.0456
CAGAACTG | 0.136
AGCGGTAT | 0.0555

Sequence | PBM E-score
CGGACCCA | 0.302
ATTCCTAG | -0.106
ACGGCTTG | -0.00111
CGGTGTGC | -0.0493
ACTGTACA | -0.322
TAAAAAAA | -0.0786
GGTTGAGA | 0.152
TATCTGGA | -0.174
ACTTCTAC | -0.0464
CGCCGACA | 0.0423
CACGCCGC | 0.0606
AGCGTGTC | -0.12
AAAGGCGA | -0.226
GGCGCTAC | -0.306
ACACGGTG | -0.022
CGGATCGA | 0.315
CCAACCCA | -0.214
ATTCAGGC | -0.0195
CCACGGTC | -0.171
ACGACCAT | -0.192
AGGTCAAT | -0.126
GTGCATCA | 0.0476
AGAGCGTC | -0.242
GGCAGCTA | -0.00286
TATAAGCA | -0.0259

Sequence | PBM E-score
GTACCTGA | -0.0359
AAGCACTG | -0.0717
CAAGGCAC | -0.0689
GTAGTTCA | -0.0233
CCCCGGGC | 0.33
CTGTGGAC | -0.235
GAGGACTC | -0.181
CCGTTTGC | 0.13
AACTCCTA | -0.0402
AGATATTG | 0.0543
TGACGCAA | -0.165
AACTGCAT | 0.0191
CACCGGCG | 0.218
AATACTGT | 0.0326
AACCTGAT | -0.14
CCAGCTTA | -0.117
AATATAAG | 0.103
GGCAGAGA | 0.0164
AGTGGGGG | -0.259
AGAAGTTG | -0.343
TAATGTGA | -0.0604
ATGGAGCC | -0.174
ACGAATCA | -0.00777
CGGCCATC | -0.0691
AATATGCT | -0.177

Sequence | PBM E-score
CAATCCTC | -0.228
ATGTACAG | -0.118
CAATTCGA | -0.283
GCTTATCC | 0.167
CGACGTAG | -0.231
CAGTCCAC | -0.222
CCAGGTAG | -0.0187
ATCAGGAT | 0.113
CTTCAAAG | -0.275
ACCGTACG | -0.233
GGATCGAC | 0.268
ACAACCCT | -0.144
ATTTGAAA | 0.0362
ACATCAAA | -0.0287
CCAAAGGA | -0.143
AGAGATGC | -0.0853
ATGTCCAG | -0.018
ATCCGGAT | 0.465
ATCCGGTA | 0.168
AGAATTTC | -0.00548
AGTTACCC | -0.137
GCCAATGA | -0.226
GACGCTGC | -0.0563
ACTCAACA | -0.109
GGACCGCA | 0.243

Sequence | PBM E-score
CGTGAGGA | -0.063
CTTACCGC | 0.151
AGACGCAG | -0.105
CTACCAAC | -0.0696
ACCCTAGA | -0.0874
ACTAAAGA | -0.166
CAGTTTTA | -0.125
CGGTTCAA | 0.105
GGGGTAAC | -0.185
AGCGTGGA | -0.236
ATTGCTAG | -0.221
ACAGGCTC | -0.243
GGAGCTCA | -0.0163
CACAGCCG | 0.237
AGTCCTTA | -0.108
CCGTTAAA | 0.125
CTCAGAAC | -0.135
AACATCGA | -0.0014
GCCAGGGA | -0.0608
ATCACAAA | -0.0899
AGAGAACG | -0.181
ATGTTTAA | -0.187
